T1: UNK ZnF1-3 (human, UniProt Q9C0B0 31-174)
T1 sequence: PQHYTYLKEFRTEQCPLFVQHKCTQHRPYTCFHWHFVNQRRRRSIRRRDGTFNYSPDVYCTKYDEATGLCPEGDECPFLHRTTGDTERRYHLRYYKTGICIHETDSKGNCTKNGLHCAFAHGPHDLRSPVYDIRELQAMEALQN

B1: chr5:145543945:145543946:-_ENSG00000133706_ENST00000545646|hu_hu|hu_hu_hu_mus_True|38_68 (ssRNA)
RNA: GGGAGUUCUACAGUCCGACGAUCCUGAACGGCCAGUGGUGGGAAAUAAUCAAGCCAGUGCUCUGCUUCAGAAAAUUUCACUAUGUCGUCAUCAGAGAGGCCAAGGGAUUUCAUAAUGUCCCACUGGUACUUAGAAGAUCCUGCCAACAGAGGAUUGAGCAUCA
B2: 173376590_173377072_1939_CDS_ENSG00000113742_ENST00000334035|human|control|control (ssRNA)
RNA: GGGAGUUCUACAGUCCGACGAUCCUUGAUAGUGGGACUUGAUACACAAAGGUAGAGUUUUCCAUCUUCUUCAAUGCAUGCAUCAAUGAGAGCCUGCACAGAGCUUUCAUCUUGAAACAGCAGGAAUGCAUAGCCUUUAGGAGGCAACAGAGGAUUGAGCAUCA
B3: chr5:116376479:116376480:+_ENSMUSG00000029516_ENSMUST00000051704|mus_mus|motif|central (ssRNA)
RNA: GGGAGUUCUACAGUCCGACGAUCCUGCUCCAGGAGGGAUCUCUGAGUCUCAGAGGCCUUCAGCUCCACCUCCUUCUGACGGAGCACAGCCUCCACCUCUGACACUCUGCGAUGUAACCGGGUCAUUUCCUGCUCCAUCUUGUGCAACAGAGGAUUGAGCAUCA
B4: chr17:60770872:60770873:+_ENSG00000011028_ENST00000303375|hu_hu|hu_hu_hu_mus_True|38_78 (ssRNA)
RNA: GGGAGUUCUACAGUCCGACGAUCUCUUUAAAAAAAAAAAAAAAAAGACAAACAAUAAUAAUGGCACUCGAGAAUCAAGAACUACAAUAGAGGGUCCAUGUCUUCGAUUUGUUCACAUCGUCCUGCACUGGGACACGGGGACUGCAACAGAGGAUUGAGCAUCA
B5: 55650286_55650406_580_CDS_ENSG00000126787_ENST00000247191|human|control|control (ssRNA)
RNA: GGGAGUUCUACAGUCCGACGAUCCUCAGCUUUCACAGCAUUCUGGUUUGAUAAAAGAAAACAAGGCAUAUCAGGUCUAUAACGACCCACUUUAAAUAUUCCUCGUUUAGCUUUCUCUCUCUGCUCUUUCAAUUUUUGAAGUUGCAACAGAGGAUUGAGCAUCA
B6: 159642612_159644452_156_CDS_ENSG00000171497_ENST00000307720|human|control|control (ssRNA)
RNA: GGGAGUUCUACAGUCCGACGAUCCAAUUCUAAGACAAUUCGACCAACUCGCUCCCCUCCGAUGUCCACGUCAAAGAAGACUCGAGGGUUACUGGGGUUGGAGGGCUUGGCUUGGGGGGACGGGUGCGACAUCUUGACUUGCAGCAACAGAGGAUUGAGCAUCA
B7: chr1:21069516:21069517:-_ENSG00000127483_ENST00000312239|hu_hu|FALSE|FALSE (ssRNA)
RNA: GGGAGUUCUACAGUCCGACGAUCUUAAAAUGUCAAGUGCCACAGGGAAGAGAAAUGAUAACCAGAAAUUUGUAUUUCUAGCUAGUACUAUUUAACACAACUUCACAAUACUAAAACAAAUACAAAUAAGAAAGGGUUAGGUAGCAACAGAGGAUUGAGCAUCA
B8: chr18:35731883:35731884:+_ENSMUSG00000037236_ENSMUST00000166793|perfect_dup|FALSE|FALSE (ssRNA)
RNA: GGGAGUUCUACAGUCCGACGAUCAAUGUUAAAUAUAGACUGCAAAUUAUGGGAAGAAGUACUAGCAGAAGACAGUGCACUAUGAGCUCCUUGUUGAUUCAAUGAAGAACUCAUUCCAAGAUUCAUUAAACUAGCAAGGCGUGCCAACAGAGGAUUGAGCAUCA
B9: 118653275_118653597_1064_CDS_ENSMUSG00000020114_ENSMUST00000020315|mouse|control|control (ssRNA)
RNA: GGGAGUUCUACAGUCCGACGAUCCAAAGGAAUUAUCUUUUCAAGGUAUUCACCUAUUCUAUGGCCAGCUUGCCUACUAAUAGCAGCAAUACACUGUAUGUAGGUCCUUGUUGUUGACAUGGAGUCAUUUUUGGACAACUCUGACAACAGAGGAUUGAGCAUCA
B10: chr2:85770095:85770096:+_ENSG00000168906_ENST00000306434|hu_hu|motif|central (ssRNA)
RNA: GGGAGUUCUACAGUCCGACGAUCAUCCAGAUCCCUGACAAUGACCCCAGGGCGGAGAUCGAAAUUCUUCUUCACAAUCUCGGAUAGCUCUCUCUCACUCUUCUGAGAGGUACCAUAAUGGAAAAUGGAGAUAGAUAAUGGAUGCAACAGAGGAUUGAGCAUCA
B11: 145586132_145586252_6219_CDS_ENSMUSG00000045482_ENSMUST00000132925|mouse|control|control (ssRNA)
RNA: GGGAGUUCUACAGUCCGACGAUCCUUCCACAAUCUUCACCACAGCUCGGAGGAUCUUGGCAUCUGGGGACUUCUCAAUGAGGGAGGUCAAGAUGGUCUGGAUGAAGUUCUUCCGCAUCUCCAUGCUCAUCACCGCCAGACGAGCAACAGAGGAUUGAGCAUCA
B12: 117003386_117003506_1447_3pUTR_ENSMUSG00000027351_ENSMUST00000028829|mouse|control|control (ssRNA)
RNA: GGGAGUUCUACAGUCCGACGAUCCUCCCUCUGAGUCUGACAUACAAUGAUAUAGCAUGCUCUCAGCACAGAGCAUGCAGCUAACUUGAUAUAUGCAUCUUUUAACAGGAUCUGGAGCGUCCUGGCAUUUCCCCCUGGCGUUUUCAACAGAGGAUUGAGCAUCA
B13: chr22:32879901:32879902:+_ENSG00000100225_ENST00000397426|hu_mus|hu_hu_hu_mus_False|28_48 (ssRNA)
RNA: GGGAGUUCUACAGUCCGACGAUCCUCUUCCAUACUCAUGGCAUCCUGAAUUGACUCAGCUUCAACAUUUUGACUAGGCCCUUCCAUACUGUCGUCAGUCCAGGCAUCAGACUGGGCGGCCUGUCCUUGGGAUGAAUCAGUCCCCAACAGAGGAUUGAGCAUCA
B14: chr14:57521665:57521666:+_ENSMUSG00000021945_ENSMUST00000022511|mus_hu|motif|central (ssRNA)
RNA: GGGAGUUCUACAGUCCGACGAUCAACAACAUCAUCAUCAUCUUCCACUGACGAGUUCUGAAACUUAUUAGAUCUAGACACGGAAGGAUUAGCUGGACCACUAAAUGAGUUUCCUACAUUCGUGAGACUAGUUGCCAUGGCCGUCAACAGAGGAUUGAGCAUCA
B15: chr3:131220538:131220539:-_ENSG00000114686_ENST00000264995|hu_mus|FALSE|FALSE (ssRNA)
RNA: GGGAGUUCUACAGUCCGACGAUCUUCUUCAGAAAGAUGUUCAUCCCACCAAGUACUACUCUUGCUGUGGAGAUUUCUAACAAAGAACAAGAUAUUCUUUCUUCUCUCUAAGCCGGGGUCAGCACCUAGGCCUCUGGCGCCACACAACAGAGGAUUGAGCAUCA
B16: 135516496_135516616_5143_3pUTR_ENSG00000113658_ENST00000545279|human|control|control (ssRNA)
RNA: GGGAGUUCUACAGUCCGACGAUCCAUGAACCCCAGUUCUAAUCUUGACAACAGAUUUCAGGUAUGAGUACUUAAUAAUCACUUCACAUCCUGAAGGAUAUCUUACUCUCAAAUGUUAUGAAAGGUAUAAAAUAGCUACAUCCUCAACAGAGGAUUGAGCAUCA
B17: chr12:96259795:96259796:+_ENSG00000139343_ENST00000266735|hu_hu|motif|central (ssRNA)
RNA: GGGAGUUCUACAGUCCGACGAUCAAGGACAUUAUUACACCUUAUUAAAACUUCACCCAGAUGUCCAGACAAAGCUCCAUCGGUGUAUUCUUCUGUAUUUGCAAGCUGCAUGUUCAUGUAGCCAUCUACAGAUACCAGAUAGCCCAACAGAGGAUUGAGCAUCA
B18: chr4:175231952:175231953:+_ENSG00000164118_ENST00000503780|hu_mus|FALSE|FALSE (ssRNA)
RNA: GGGAGUUCUACAGUCCGACGAUCGGGUACAAAGUCCACAUCACUAAUUGACUCACAGUCUUGACUUGCCACAUUACGCUCUACAGAUUCACUCUUUUUGGACAACAGCAUCUCCGUUUCUAGAAGAGUGACACGACUUAGAAGCAACAGAGGAUUGAGCAUCA
B19: chr11:77340908:77340909:-_ENSG00000074201_ENST00000525064|hu_hu|hu_hu_hu_mus_True|18_18 (ssRNA)
RNA: GGGAGUUCUACAGUCCGACGAUCGUUUGGAUCCCUGGACACCGCAUGUAAACUAAUGGUGGGGUAUUCCAGUGAGAAUCCUAAUCCCGAACCAUCUAACCAGGACAGGCGGCUCUCAGCGAUGUAAAGCGUGCCGGUGCCGAGCAACAGAGGAUUGAGCAUCA
B20: 77287842_77287962_3175_CDS_ENSMUSG00000036377_ENSMUST00000163347|mouse|control|control (ssRNA)
RNA: GGGAGUUCUACAGUCCGACGAUCCACUAAGUGGGGUCUGCUCAGUUUGGAGAGUGGGGAUGAAGGUGGGGUCUGGCUGGCAGGCUUGGGAGCCAGGGCCGGCUUCUGCAUGGAUGGCAUUUUGCUUACUGCCCUGUCUUGCUCCAACAGAGGAUUGAGCAUCA
B21: chr12:39756943:39756944:-_ENSG00000139116_ENST00000544797|hu_mus|hu_hu_hu_mus_False|18_38 (ssRNA)
RNA: GGGAGUUCUACAGUCCGACGAUCGGUUUGGCUGUUACCCCCAAGGGAAUCCUGCAAGAGUCUUGUCAGCUUAGAGUCUCUGUAAGGGACAUGGGUGGCCCUCUUGCUCUUGUCCCCCAAGGCACUUAUUACAUUCCCAAGAGCCAACAGAGGAUUGAGCAUCA
B22: chr17:2570287:2570288:+_ENSG00000007168_ENST00000397195|hu_hu|FALSE|FALSE (ssRNA)
RNA: GGGAGUUCUACAGUCCGACGAUCCUGACCAAGAGGUCCACCUGACGUAAAUUCUUCUUUUGCUUCAUUUAGCUUUGAUUCUAAUUCCAUAACCUUCUUUUGUAAUCUAAUAACAGAUGUCCAUUUUUUUUCCAAAAGACCAGCCAACAGAGGAUUGAGCAUCA

Some of the results follow.

The values that follow come from article PMC12136788.

The assay addresses T1, UNK ZnF1-3. The experiment in a line: nsRBNS (natural sequence RNA bind-n-seq); RBNS binding buffer (assumed for nsRBNS): 25 mM Tris pH 7.5, 150 mM KCl, 3 mM MgCl2, 0.01% Triton X-100, 500 ug/ml BSA, 20 U/ml SUPERase-In, 4 C; UNK is unkempt and MSI1 is Musashi-1; names of the RNAs are library labels; protein concentration not given here; high values mean tight binding.
B1 came in with a binding signal of 1.17 enrichment R.
B2 yielded a binding signal of 1.39 enrichment R.
In turn, B3 came in with a binding signal of 0.476 enrichment R.
The figure for B4 is 2.68 enrichment R; for B5 it is 1.16 enrichment R.
With B6 the figure was 0.617 enrichment R; with B7, 1.68 enrichment R.
With B8, the binding signal turned out to be 0.78 enrichment R.
The figure for B9 is 0.396 enrichment R.
Turning to B10, the binding signal came to 0.957 enrichment R.
Take B11: the binding signal was determined as 1.29 enrichment R.
For the molecule B12, the binding signal came out at 0.787 enrichment R.
Turning to B13, the binding signal came to 0.894 enrichment R.
With B14 the figure was 0.976 enrichment R; with B15, 0.685 enrichment R.
The molecule B16 returned a binding signal of 0.968 enrichment R.
The molecule B17 came in with a binding signal of 0.474 enrichment R.
B18 displayed a binding signal of 1.04 enrichment R.
Take B19: the binding signal worked out at 0.81 enrichment R.
With B20 the figure was 0.939 enrichment R; with B21, 0.723 enrichment R.
With B22 the figure was 0.985 enrichment R.
